Here are results for five compounds from patent US20100113370A1, “METHODS AND COMPOUNDS FOR MODULATING INFLAMMATORY PROCESSES” (priority 2007, published 2010).

Assay [1] concerns the target T1, ABCC4 (Homo sapiens, UniProt O15439).
T1 sequence (O15439 1-1325): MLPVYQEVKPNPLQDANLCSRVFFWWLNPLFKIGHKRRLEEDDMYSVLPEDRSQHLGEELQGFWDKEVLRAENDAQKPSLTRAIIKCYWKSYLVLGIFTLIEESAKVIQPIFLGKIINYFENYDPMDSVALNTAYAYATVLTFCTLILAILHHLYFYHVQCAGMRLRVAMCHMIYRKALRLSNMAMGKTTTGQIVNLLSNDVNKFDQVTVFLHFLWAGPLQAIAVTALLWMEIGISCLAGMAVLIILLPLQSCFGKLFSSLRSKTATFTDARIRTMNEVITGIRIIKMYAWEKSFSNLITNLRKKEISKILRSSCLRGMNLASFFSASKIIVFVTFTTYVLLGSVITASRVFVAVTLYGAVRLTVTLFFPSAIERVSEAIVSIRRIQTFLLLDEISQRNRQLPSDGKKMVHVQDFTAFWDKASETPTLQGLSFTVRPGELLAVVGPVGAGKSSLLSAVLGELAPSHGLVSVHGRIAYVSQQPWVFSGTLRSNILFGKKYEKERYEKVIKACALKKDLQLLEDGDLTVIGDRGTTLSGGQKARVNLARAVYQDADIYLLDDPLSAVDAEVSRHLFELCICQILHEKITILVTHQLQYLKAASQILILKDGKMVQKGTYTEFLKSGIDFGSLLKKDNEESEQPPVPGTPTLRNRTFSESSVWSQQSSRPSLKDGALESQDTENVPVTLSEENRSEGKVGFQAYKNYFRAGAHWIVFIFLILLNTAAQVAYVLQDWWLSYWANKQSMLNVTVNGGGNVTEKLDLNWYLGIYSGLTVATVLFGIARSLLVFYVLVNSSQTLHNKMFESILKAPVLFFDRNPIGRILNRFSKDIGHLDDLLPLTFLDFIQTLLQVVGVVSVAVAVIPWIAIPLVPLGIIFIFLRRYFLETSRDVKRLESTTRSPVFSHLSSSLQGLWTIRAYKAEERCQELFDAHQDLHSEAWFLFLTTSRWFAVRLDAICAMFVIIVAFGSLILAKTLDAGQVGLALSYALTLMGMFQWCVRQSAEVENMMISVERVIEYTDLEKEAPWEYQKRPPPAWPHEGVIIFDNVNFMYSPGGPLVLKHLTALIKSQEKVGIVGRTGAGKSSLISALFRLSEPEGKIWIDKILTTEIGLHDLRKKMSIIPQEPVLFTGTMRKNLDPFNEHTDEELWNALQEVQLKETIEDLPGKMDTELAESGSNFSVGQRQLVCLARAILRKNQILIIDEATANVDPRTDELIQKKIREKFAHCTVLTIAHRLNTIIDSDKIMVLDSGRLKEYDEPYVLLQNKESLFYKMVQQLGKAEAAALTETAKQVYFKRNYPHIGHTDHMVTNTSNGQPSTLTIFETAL
To be noted: for inhibition at 10 µM: read-out: inhibition of ATP-dependent [^3H]LTB4 transport.

The target of assay [2] is T1, ABCC4. The experiment in a line: ATP-dependent substrate transport and kinetic analysis in plasma membrane vesicles from human platelets (endogenous ABCC4).
The target of assay [3] is T1, ABCC4. The experiment in a line: ATP-dependent substrate transport and kinetic analysis in membrane vesicles from V79 cells with recombinant ABCC4. In kind it is biochemical. The arrangement: expressed in transfected cells; host or cells: Chinese hamster lung V79 fibroblasts (V79-ABCC4), inside-out membrane vesicles. The note with it: for ATP-dependent LTC4 accumulation: 100 nM, after 5 min.

For assay [4], the target named is T1, ABCC4. The experiment in a line: Inhibition of ATP-dependent [3H]LTC4 transport into plasma membrane vesicles from human platelets. The arrangement: expressed in transfected cells; host or cells: Chinese hamster lung V79 fibroblasts (V79-ABCC4), inside-out membrane vesicles. In kind it is biochemical. The note with it: 20 μM; vesicles from human platelets.

By inhibition is commonly meant the relative decrease from the control value, in per cent. What is called Km is the concentration of substrate that gives half-maximal velocity.

Regarding `COc1ccc2c(c1)c(CC(=O)O)c(C)n2C(=O)c1ccc(Cl)cc1` [Indomethacin, indomethacin], on ABCC4 [1], the inhibition at 10 µM is 68%.
`CCCCC/C=C\C\C=C/C=C/C=C/[C@@H](SC[C@H](NC(=O)CC[C@H](N)C(=O)O)C(=O)NCC(=O)O)[C@@H](O)CCCC(=O)O` [LTC4, leukotriene C4]: the entries for the “Vmax (LTC4 transport)” value at ABCC4 [2] (human platelets) and at ABCC4 [3] (V79-ABCC4) were 9.7 pmol×mg protein^−1×min^−1 and 37.4 pmol×mg protein^−1×min^−1, respectively. Further, the Km came to 0.32 ± 0.03 µM at ABCC4 [2] (read-out: Km value for ABCC4 (LTC4 transport), vesicles from human platelets, 0.1 to 2 μM LTC4) and 0.13 ± 0.02 µM on ABCC4 [3] (vesicles from V79-ABCC4, 0.1 to 2 μM LTC4, read-out: Km value for ABCC4 (LTC4 transport)). On ABCC4 [2] (vesicles from human platelets, 100 nM [^3H]LTC4), the LTC4 transport rate is 0.6 pmol×mg protein^−1×min^−1. In addition, the “LTC4 transport rate, V79-ABCC4 versus V79-Co vesicles” value at ABCC4 [3] (100 nM LTC4) is given as 2.2 fold. The “ATP-dependent LTC4 accumulation” value is on record as 32.3±3.2 pmol×mg protein^−1 on ABCC4 [3] (vesicles from ABCC4-transfected V79 cells) and 14±0.5 pmol×mg protein^−1 on ABCC4 [3] (vesicles from vector-transfected V79 cells).
`CCCCC/C=C\C\C=C/C=C/C=C/[C@@H](SC[C@H](N)C(=O)NCC(=O)O)[C@@H](O)CCCC(=O)O` [LTD4, leukotriene D4]: the “ATP-dependent transport rate of [^3H]LTD4” value on ABCC4 [3] (vesicles from V79-ABCC4 cells, absence of GSH) is 0.6 pmol×mg protein^−1×min^−1.
Turning to `CN(C)C(=O)CCSC(SCCC(=O)O)c1cccc(/C=C/c2ccc3ccc(Cl)cc3n2)c1` (stereo not shown) [MK571], the “inhibition of LTB4 transport (in words)” value on ABCC4 [1] (presence of GSH) is reported as “effective inhibitors”. For the same compound, at ABCC4 [4], the inhibition at 20 µM was determined as 32%.
Take `CSc1ccc(/C=C2/C(C)=C(CC(=O)O)c3cc(F)ccc32)cc1` [Sulindac sulfide, sulindac sulfide]: at ABCC4 [1], the inhibition at 10 µM came out at 74%.
